Assay results reported in ChEMBL document CHEMBL5308541, “MAIP: An Open-Source Tool to Enrich High-Throughput Screening Output and Identify Novel, Druglike Molecules with Antimalarial Activity” (ACS Med Chem Lett, 2023).
In all, about 150,000 compounds went through this assay and about 540 (0.36%) showed an effect of 50% or more. The list shows a part of the results.

System: Plasmodium falciparum
Experiment: Primary screen in NF54 nanoGlo assay, in single point, at 2uM, 72h; a lower Z score goes with more inhibition
Type: functional, Erythrocyte
Conditions: timepoint 72 hour

Row | Structure (SMILES) | % Inhibition | Z score
1 | Cc1nc(N)nc(N2CCO[C@@H](Cc3noc(-c4ccccn4)n3)C2)c1C | 4% | -0.85
2 | N#Cc1ccc(CN2CC[C@@H]3CNC[C@@H]3CC2)c(C(F)(F)F)c1 | 3% | -0.51
3 | Cc1cc(CC2CN(C(=O)c3cc4ccccc4n3C)CC2O)on1 (configuration not stated) | -7% | 1.61
4 | CC1(C)[C@@H]2CC[C@H](CNc3ncnc4c3CCNC4)[C@H]1C2 | 11% | -1.74
5 | O=S(=O)(Nc1cccc(C(F)(F)F)c1)c1ccc2[nH]c(-c3ccc4c(c3)OC(F)(F)O4)nc2c1 | 0% | 0.05
6 | CCN1CCN([C@H]2CCN(c3nc(C(C)C)nc4[nH]ccc34)C2)CC1 | -1% | 0.16
7 | Cc1noc(C)c1NC(=O)c1cccc(S(=O)(=O)N(C)Cc2cc[nH]n2)c1 | 5% | -1.1
8 | CCN1CCN(C[C@H](O)COc2ccc(CNCCCN3CCCC3=O)cc2OC)CC1 | -4% | 0.81
9 | O=C1Cc2cccc(c2)Oc2cccc(c2)COC2CN(c3cncc(C(=O)N4CCCC4)n3)CC2N1 (configuration not stated) | 7% | -1.12
10 | COc1ccc2[nH]c(CN3CCC[C@H](N4CCN(c5ccccc5)CC4)C3)c(C)c2c1 | -4% | 0.66
11 | CO[C@H]1C[C@@H](CNc2nccc(OC(C)C)n2)N(c2cc(C)ncn2)C1 | -1% | 0.17
12 | CCNC(=O)c1ccc(NC(=O)NCCCn2ccnn2)cc1 | -5% | 0.77
13 | O=C1CN(CCCN[C@H]2CCN(c3ccccc3)C2)CCN1 | -2% | 0.37
14 | Cc1nccn1Cc1ccc(NCc2cccc3cccnc23)cc1 | -7% | 1.55
15 | COc1ccc(-c2ccc(C(=O)N3Cc4[nH]cnc4C[C@H]3C(=O)O)o2)cc1 | -10% | 1.78
16 | O=C(Nc1ccc(N2CCNCC2)cn1)c1cc2n(n1)CC1(CCNCC1)OC2 | -7% | 1.3
17 | CC1CCC(C)N1CCN1CCN(CCOc2cccc(F)c2)CC1 (configuration not stated) | 4% | -0.88
18 | CCN1CC(Nc2nc(N)nc3c2CCNCC3)C(OC)C1 (configuration not stated) | 6% | -1.02
19 | O=C(c1cc2occc2[nH]1)N1CCN(C2CCCCC2)CC1 | -11% | 1.97

Row | Structure (SMILES) | % Inhibition | Z score
20 | OC1CN(Cc2cnc(C3CCCCC3)nc2)CCC1Nc1ncccn1 (configuration not stated) | 49% | -7.39
21 | CN(CCCN1CCCCCC1)C(=O)c1ccc(-c2cnc(N)cn2)cc1 | 4% | -0.83
22 | O=C(c1cccnc1Nc1cccc(F)c1)N1CC[C@H](Oc2ccc(C(F)(F)F)cn2)C1 | -2% | 0.44
23 | O=C(c1cccc(OCCc2ccccc2)c1)N1CC2COCCC2(C(=O)O)C1 (configuration not stated) | -3% | 0.52
24 | COc1cccc(S(=O)(=O)N2C3CCC2CC(n2cc(Br)cn2)C3)c1 (configuration not stated) | -8% | 1.17
25 | c1cc([C@H](CNc2ncnc3c2CCNCC3)N2CCOCC2)ccn1 | -3% | 0.59
26 | CC(=O)Nc1cccc(Nc2ncncc2-c2nc(-c3ccccc3F)no2)c1 | -3% | 0.55
27 | CC(C)(C)OC(=O)N1C2CCC1CC(Nc1cccc(N3CCCCC3)c1)C2 (configuration not stated) | -16% | 2.72
28 | COc1ccc(NC(C)(C)C(=O)NCc2c(C)ccc3ncccc23)cc1 | 1% | -0.14
29 | CCc1cc(N2CCN(c3nccc(-c4cccnc4)n3)CC2)ncn1 | -3% | 0.57
30 | CC1CC(c2ccc(F)cc2)CN1C(=O)c1ccc(C(=O)O)nc1 (configuration not stated) | -4% | 0.76
31 | O[C@H](COc1ccccc1CNCc1cc(-c2ccccc2)[nH]n1)CN1CCCCC1 | 32% | -5.52
32 | COCCN1CCC[C@H](CNc2nc(C)nc3ccccc23)C1 | 3% | -0.62
33 | COc1ccc(-c2[nH]c3ccccc3c2CCC(=O)N[C@H]2CCCc3[nH]c(=O)c(C(N)=O)cc32)cc1 | -2% | 0.3
34 | O=C(Nc1cccc(N2CCC(NCC3(c4ccccc4)CCOCC3)CC2)c1)c1ccncc1 | 4% | -0.72
35 | Cc1[nH]c(-c2ccccc2)nc1C(=O)N1CCN(CCN2CCCC2)CC1 | -7% | 1.3
36 | CC(C)NC(=O)C1CCN(C2CCN(Cc3cnc(N4CCCC4)s3)CC2)CC1 | -9% | 1.51
37 | CC(C)n1cnc(C(=O)N[C@H]2C[C@H](c3cccc(F)c3)C2)c1 | 0% | 0
38 | Cn1cc(-c2nnc(NCc3cccc(OC4CC4)c3F)o2)cn1 | 4% | -0.63

Row | Structure (SMILES) | % Inhibition | Z score
39 | Cc1cnn(-c2cccc(N[C@H](C(=O)N3CCOCC3)C(C)C)n2)c1 | -2% | 0.39
40 | C=CCC[C@@H](CN(C)C)Oc1ccc(C(=O)N2CCOCC2)o1 | 0% | 0.09
41 | CC[C@H]1COCCN1C(=O)c1cccc(-c2ccc3cc[nH]c3c2)c1 | -3% | 0.59
42 | c1ccc(OCCCCN2CCOCC2)c(CN[C@H]2CCNC2)c1 | -5% | 1.01
43 | O[C@@H](CNC1CCC2(CC1)COC2)c1cccc(F)c1 | 8% | -1.16
44 | COc1cccc(-c2cc(-c3c(C)noc3C)nc(N3CCN(C)CC3)n2)c1 | -12% | 2.45
45 | c1cnc2c(-c3ccc4[nH]ncc4c3)cccc2c1 | -4% | 0.61
46 | CN1CCN(C(=O)CN2CCC(N(C)C(=O)C3CCC(C4CC4)N3)CC2)CC1 (configuration not stated) | -5% | 0.98
47 | COc1ccc(CO)c(-c2cnc(C3CCOCC3)o2)c1 | -7% | 1.29
48 | CC1(C)CN(C(=O)C(C)(C)S(C)(=O)=O)C[C@@]2(CCOC2)O1 | -8% | 1.36
49 | OC1(c2cccnc2)CCN(C2CCN(c3ccc(F)c(F)c3)CC2)CC1 | -11% | 1.84
50 | Cc1[nH]c2ncnn2c(=O)c1CC(=O)O | -4% | 0.59
51 | COc1ccc2c(CN3CCN(c4ccc(Cl)cn4)CC3)n[nH]c2c1 | 1% | -0.11
52 | CC(C)c1ccc([C@@]2(C)Nc3ccccc3-c3nc(-c4cccc(F)c4)nn32)cc1 | -8% | 1.26
53 | CC(C)[C@H]1NC(=O)[C@H](Cc2ccccc2)Nc2cc(nc(NCc3cccnc3)n2)CCNC(=O)[C@H](C)NC1=O | 4% | -0.74
54 | Cc1nnc(OCC2CC(F)(F)C2)c2ccccc12 | -15% | 3.02
55 | Cc1nc(-c2c(-c3ccccc3)ncn2CCN2CCCC[C@@H]2CO)c[nH]1 | 1% | -0.32
56 | Cc1cccn2cc(C(=O)N3CCCN(c4ncnc5[nH]ccc45)CC3)nc12 | 15% | -2.71
